Source: PubChem BioAssay AID2202238 (Ras Initiative Chemistry Research Team, Frederick National …, 2025)
Among all 2,200 compounds or so, fewer than 10 were called active. Some of the results follow. The source made no clear call on entries shown without one.

biological target: GTPase KRas (Homo sapiens) (UniProt P01116); test: Cysteine mutants labelled by reactive fragments (mass read-out) (AID 2202238); design: protein at 5 µM with 500 µM competing thiol for 1.5 h; conditions: KRAS G12D cysteine mutants, disulfide tethering, MALDI-TOF labeling; stronger effect = higher value; H27C mutant labeling; fragment at 500 µM
UniProt P01116, sequence (P01116 whole entry, looked up, the tested form may be a part): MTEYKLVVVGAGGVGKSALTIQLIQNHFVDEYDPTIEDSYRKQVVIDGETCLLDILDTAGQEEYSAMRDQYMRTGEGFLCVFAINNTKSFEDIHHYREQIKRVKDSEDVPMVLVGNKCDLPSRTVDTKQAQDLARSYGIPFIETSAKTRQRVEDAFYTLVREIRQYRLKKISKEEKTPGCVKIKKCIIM

SMILES	percent labeling [%]
Cc1cccc(-c2ccc(C(=O)NCCS)n2C)c1	23.4
CC(NC(=O)NCc1ccc(C(=O)NCCS)o1)c1cccs1 (configuration not stated)	17.7
O=C(Cc1cc(Cl)c2c(c1)OCCCO2)NCCS	41.2
N#Cc1cc(NC(=O)CCS)ccc1OC(F)F	41.9
Cc1nc(C(=O)NCCS)c(-c2ccccc2)s1	28.7
O=C(CC1CCC(C(F)(F)F)CC1)NCCS (configuration not stated)	28.1
CC1(C)Cc2ccc(C(=O)NCCS)c(O)c2O1	23.6
CN(Cc1nc2ccccc2[nH]1)C1CCN(C(=O)CCS)CC1	42.1
Cc1nc2ccccc2c(C)c1C(=O)NCCS	40
O=C(CCS)NCc1nnc2n1CCNC2=O	18.1
COc1cccc2c(=O)c(C)c(C(=O)NCCS)[nH]c12	41.4
O=C(CCS)NCCn1nc2ccccn2c1=O	24.1
O=C(CCS)Nc1cn(Cc2ccccc2)nn1	38.6
O=C(Cn1ncc2ccccc2c1=O)NCCS	29.4
O=C(CCS)NCCc1cccc(C(F)(F)F)n1	34.6
CC(CC(=O)NCCS)Cc1ccc(Cl)cc1 (configuration not stated)	23
O=C(CCS)NCCc1nc2ccc(F)cc2[nH]1	37
O=C(CCS)Nc1cnc(N2CCOCC2)c(Br)c1	38.8
COc1c(C(=O)NCCS)sc(Cl)c1Cl	21.2
O=C(CCS)Nc1ccn(CCOCCO)n1	28.2
O=C(NCCS)C1C2C=CC(C2)C1c1ccccc1 (configuration not stated)	16.3
O=C(NCCS)c1cc(Br)cn(C2CC2)c1=O	36.8
CC(C)(C)OC(=O)N1CCC12CCN(C(=O)CCS)CC2	37
O=C(CC1COCCN1CC(F)(F)F)NCCS (configuration not stated)	25.8

SMILES	percent labeling [%]
O=C(NCCS)c1ccc(-n2nccc2-c2ccc(F)cc2)cc1	31
Cc1cc(C)n(-c2ccc(Cl)c(C(=O)NCCS)n2)n1	24.3
Cc1ccc(C(O)(CC(=O)NCCS)C(F)(F)F)o1 (configuration not stated)	34.6
O=C(NCCS)c1c[nH]cc(C(F)(F)F)c1=O	35.5
COc1c(F)c(F)cc2c(=O)c(C(=O)NCCS)cn(C3CC3)c12	18.5
COc1ccc(CCN(C)C(=O)CCS)cc1OC	39.8
Cn1nccc1C1(O)CN(C(=O)CCS)C1	35.3
O=C(Cc1scnc1-c1ccccc1)NCCS	32.1
Cn1cc(-c2nc(C(=O)NCCS)cs2)cn1	50
O=C(Cc1cscc1Br)NCCS	39.8
COc1ccc(-c2oc(C)cc2C(=O)NCCS)cc1	26.2
O=C(CCS)N(CCO)Cc1cccnc1Cl	35.8
O=C(CCS)N1CCc2[nH]cc(Br)c(=O)c2C1	33.7
O=C(Cc1ccccc1OC1CCOC1)NCCS (configuration not stated)	30.8
O=C(CCS)NCc1ccc(N2CCCNC2=O)cc1	41
Cc1nnc2ccc(C3CCN(C(=O)CCS)CC3)nn12	45
O=C(CCc1ccnc2ccccc12)NCCS	30.7
O=C(CCS)N1CCC(O)(c2ccccc2)CC1	39.7
CN(C)CCOc1ccccc1NC(=O)CCS	48.5
CC1CN(S(C)(=O)=O)C(C)CN1C(=O)CCS (configuration not stated)	45.3
Cc1cccc(C)c1N1CCN(C(=O)CCS)CC1	19.1
CCN(Cc1nc2ccsc2c(=O)[nH]1)C(=O)CCS	38
Cn1cc(C(=O)NCCS)c2nc(-c3ccccc3)ccc21	29
CCOCc1nc(C)c(C(=O)NCCS)s1	41.6

SMILES	percent labeling [%]
O=C(NCCS)c1ccc(OCc2ccccc2)cn1	22.3
Cc1c(NC(=O)CCS)cnn1C1CCCC1	37.5
O=C(CCS)NC1(CO)CC2(CCOCC2)C1	22.8
O=C(CC1CCS(=O)(=O)C1)NCCS (configuration not stated)	28.7
O=C(NCCS)C1CC(c2ccc(C(F)(F)F)cc2)C1 (configuration not stated)	21.2
Cc1occ(C(F)(F)F)c1CC(=O)NCCS	23.5
O=C1CCCCC2(C(=O)NCCS)CCCN12 (configuration not stated)	31.6
CN(Cc1cnn(-c2cccc(Cl)c2)c1)C(=O)CCS	38.6
Cc1cc(CC2CCCC2NC(=O)CCS)n(C)n1 (configuration not stated)	37.7
O=C(NCCS)c1cc(Br)c2occc2c1	35.8
O=C(NCCS)c1ncsc1C(F)(F)F	47.2
COc1ccc(Cl)cc1C(=O)N1CCC(C(=O)NCCS)CC1	39.3
Cc1ccc(-c2nc(C(=O)NCCS)cs2)o1	34.4
Cc1ccc(Br)c2[nH]c(C(=O)NCCS)cc12	23.2
O=C(NCCS)c1c[nH]c2ncc(Br)cc12	46.9
O=C(CCc1ncc(-c2ccc(F)cc2)o1)NCCS	22
COc1cc(CN(C(=O)CCS)C2CC2)ccc1O	43
CC1(N2CCCC2)CCC(NC(=O)CCS)CC1 (configuration not stated)	47.1
O=C(NCCS)c1cccc(NC(=O)C2Cc3ccccc3O2)c1 (configuration not stated)	15.4
O=C(NCCS)c1cccc(N2CCOCC2=O)c1	40.7
O=C(CCS)Nc1cccc(COc2ccc(F)cc2)c1	30.9
CCN(CC(=O)NCCS)Cc1ccc(Cl)cc1	32.6
O=C(CCS)N(Cc1ccc2c(c1)OCO2)C1CCCC1	36.5
O=C(CCS)N1CCN(Cc2cc(=O)n3ccccc3n2)CC1	41

SMILES	percent labeling [%]
CN1C(=O)C[C@@H](C(=O)NCCS)[C@@H]1c1ccc(F)cc1	39.8
CN(C)c1nc[nH]c(=O)c1NC(=O)CCS	30.4
Cn1cc(C(O)C2CCN(C(=O)CCS)CC2)c(=O)n(C)c1=O (configuration not stated)	37.3
Cc1nn(C)cc1CN(C(=O)CCS)C1CC1	34.2
O=C(Cn1cccnc1=O)Nc1ccc(F)c(NC(=O)CCS)c1	28
O=C(CCS)NCc1ccc(-n2ccc(C3CC3)n2)cc1	35.8
Cc1ccc(-c2noc3nc(C)cc(C(=O)NCCS)c23)cc1	29.1
CN(CC(=O)NCCS)Cc1cccc(C#N)c1	37
O=C(NCCS)c1ccccc1Cn1ccnn1	33
CN(C(=O)CCS)C1CCN(CC(F)(F)F)CC1	39.5
COc1cc2[nH]c(C(=O)NCCS)cc2c(OC)c1OC	37.9
Cn1nc(C(F)F)cc1CNC(=O)CCS	33.7
O=C(CC1(CC(=O)Nc2nccs2)CCCCC1)NCCS	35.2
Cc1cc(=O)oc2cc(NC(=O)CCS)ccc12	26.4
O=C(NCCS)C1CCN(c2cnccn2)CC1	39.5
O=C(CCn1nc(-c2cccs2)oc1=O)NCCS	32.1
Cn1cc(C2=CCCN(C(=O)CCS)C2)cn1	19.4
O=C(CCS)Nc1nc(C2CC2)c(Cc2ccc(F)cc2)s1	20.9
Cc1nc2ccccc2c(=O)n1-c1ccc(C(=O)NCCS)cc1	32
O=C(Cc1cc2ccccc2c(=O)[nH]1)NCCS	25.1
CN1CCN(c2cccc(C(=O)NCCS)n2)CC1=O	31
Cn1nc(C(F)(F)F)c2cc(C(=O)NCCS)cnc21	43.3
O=C(NCCS)C1COCCN1CC1CCC1 (configuration not stated)	31.9
O=C(NCCS)c1cc(-c2ccc3ccccc3c2)n[nH]1	18.5

SMILES	percent labeling [%]
Cc1ccc(C)c(CN(C(=O)CCS)c2ccc3c(c2)CCC(=O)N3)c1	31.7
O=C(NCCS)c1cnn(-c2cccc(Cl)c2)n1	36.9
CCCc1nc2ccccc2n1CCC(=O)NCCS	34.3
CC(C)c1cc(C(=O)NCCS)nn1-c1ccccc1	22.3
O=C(NCCS)c1cccc(C(F)(F)F)c1	31.7
O=C(CCS)N1CCC(Sc2cccc(Cl)c2)C1 (configuration not stated)	41.3
O=C(NCCS)c1ccccc1-n1cc(Br)cn1	39.1
COc1cccc(CCN(CC(F)F)C(=O)CCS)c1	39.4
CCn1cc(-c2[nH]ncc2C(=O)NCCS)cn1	45.4
CN(CCNC(=O)CCS)c1ccccn1	28.2
O=C(CCS)Nc1cc2c3c(c1)CCC(=O)N3CCC2	41.2
Cc1nn(-c2ccccc2)c2sc(C(=O)NCCS)cc12	33.9
O=C(NCCS)C1(C(F)(F)F)CCN(Cc2ccccc2)C1 (configuration not stated)	31.6
Cc1cccc(C(CC(=O)NCCS)NC(N)=O)c1 (configuration not stated)	32.7
O=C(NCCS)c1ccc2noc(-c3ccc(F)cc3)c2c1	23.3
Cc1nc2ccccc2c(C)c1CC(=O)NCCS	40.4
Cn1cc(C(=O)NCCS)c2ccccc2c1=O	45.1
O=C(CCS)NCCn1cncc1-c1ccccc1	35.5
CN(C)CCNS(=O)(=O)c1cccc(NC(=O)CCS)c1	60
Cc1ccn2c(CN3CCN(C(=O)CCS)CC3)c(C)nc2c1	36.1
O=C(CCS)N1CCN(Cc2noc(C3CC3)n2)CC1	34.8
O=C(NCCS)C1(C2CCCCO2)CCCO1 (configuration not stated)	28.9
Cc1ccc(-n2ccc(CNC(=O)CCS)n2)cc1	30.3
COc1ccccc1C1(C)CC1C(=O)NCCS (configuration not stated)	37.4

SMILES	percent labeling [%]
O=C(CCS)N1CCc2cc(Br)c(Cl)cc21	16.4
O=C(CCS)NCCN1C(=O)Cc2ccccc21	21.1
O=C(NCCS)c1ccc(C2CCCOC2)cc1 (configuration not stated)	31.2
Cc1ccc(Cl)c2sc(NC(=O)CCS)nc12	38.2
CCc1[nH]c(-c2ccccc2)cc1C(=O)NCCS	28.8
O=C(CCS)NCc1cn(CC(=O)Nc2cc(F)cc(F)c2)nn1	29
CC(C)COc1ncc(CNC(=O)CCS)cc1Cl	31.5
CCC1CCc2sc(C(=O)NCCS)cc2C1 (configuration not stated)	15.2
O=C(CCS)N1CCC(n2cc3ccccc3n2)C1 (configuration not stated)	40.1
O=C(CCS)N1CC(O)CC1c1cc(F)ccc1F (configuration not stated)	37.9
CC1(NC(=O)CCS)CCOC12CC2(F)F (configuration not stated)	31.7
O=C(NCCS)C(c1ccc(Br)cc1)N1CCCC1 (configuration not stated)	38
Cc1ccc(CN(C)c2ccc(C(=O)NCCS)cc2)cc1	25.8
Cc1nc(C)n(CC2CCCN(C(=O)CCS)C2)n1 (configuration not stated)	40.2
O=C(CCS)Nc1ccc(Cl)nc1OCc1ccccc1	25.1
O=C(NCCS)c1ccc(Cl)c2occc12	20.1
Cc1nn(C)c(N2CCOCC2)c1CNC(=O)CCS	37.6
O=C(CCS)NC1(c2nc(-c3ccsc3)no2)CCCCC1	26.4
O=C(Cn1nccc1-c1ccccc1)NCCS	28.6
Cc1cc(Oc2ccccc2C#N)ncc1NC(=O)CCS	48.6
Cc1cc(C)nc(-n2cc(C(=O)NCCS)c(C)n2)n1	37.8
COC(=O)C1(C2(O)CCN(C(=O)CCS)CC2)CCC1	39.6
